In PubChem BioAssay AID504832 (National Center for Advancing Translational Sciences (NCATS), 2011):
“And” between values parts separate entries of the source, which are not always exact repeats. Equal entries are not always repeated. Screen size: about 310,000 compounds; about 18,000 (5.8%) were called active. Inconclusive results, whose numbers are uncertain, are shown with a selection of clear calls. Calls follow the shape of the dose curve; as a rule, active = well fitted inhibition curve with a large enough effect; inconclusive = small, poorly fitted or top-dose-only effect, or another doubt; inactive = no such curve, though single readings can be large or run the other way. Potencies of inconclusive entries are left out as doubtful fits.

test: Primary qHTS for delayed death inhibitors of the malarial parasite plastid, 48 hour incubation; details: P. falciparum luciferase growth in erythrocytes; series mostly up to 28.7 µM
Summary of the method: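 A one-generation exposure of luciferase-tagged malaria parasites in RPMI 1640/Albumax erythrocyte culture, 37 C and 5% CO2. Inhibition is inferred from decreased luminescence after adding detection reagent.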
Potency is read from the fitted curve at half-maximal effect; tags tell the direction and shape of the fitted curve.

SMILES	Potency
CCOC(=O)C1(Cc2cccc(OC)c2)CCN(Cc2cnc(SC)nc2)CC1	inconclusive [inhibitor, partial curve, poor fit]
Cc1cccc(NC(=O)c2sc(-c3ccccc3)nc2-c2ccc([N+](=O)[O-])cc2)c1	inconclusive [inhibitor, single point]
COc1ccccc1N1CCN(C(=O)COc2ccc(C)cc2Br)CC1	inactive
CCOc1ccc(C2C(C#N)=C(N)SC(N)=C2C#N)c(OCC)c1	inconclusive [inhibitor, single point]
Cc1cc2nc3c(=O)[nH]c(=O)nc-3n(CC(O)C(O)C(O)COP(=O)(O)O)c2cc1C (stereo not drawn)	inconclusive [inhibitor, partial curve, poor fit]
COc1ccc(-c2c(C(F)(F)F)nn(C)c2NC(=O)c2ccco2)cc1	inconclusive [inhibitor, single point]
COc1cc2c(cc1OC)-c1cc(N3CCCCCC3)nc(=O)n1CC2	inconclusive [inhibitor, single point]
CC(=O)c1cn(Cc2ccc(C#N)cc2)c2ccccc12	inconclusive [inhibitor, single point]
Cn1nc(C(=O)Nc2ccc(S(=O)(=O)N3CCCCC3)cc2)c2ccccc2c1=O	inconclusive [inhibitor, partial curve, poor fit]
C=C(C)CCC(C)N1CCC(n2nccc2NC(=O)CCCc2ccccc2)CC1 (stereo not drawn)	inconclusive [inhibitor, partial curve, poor fit]
CC1(c2ccccc2)NC(=O)N(CC(=O)Nc2cc(S(=O)(=O)N3CCOCC3)ccc2Cl)C1=O (stereo not drawn)	inactive
CCOC(=O)N1CCN(C(=O)CN(C2CCCCC2)S(=O)(=O)c2ccc(F)cc2)CC1	inconclusive [inhibitor, single point]
O=S(=O)(c1ccccc1)N1CCN(C(=S)Nc2ccccc2Cl)CC1	inconclusive [inhibitor, full curve, poor fit]
CCOC(=O)/C(C#N)=C/c1c(N2CCN(c3cccc(Cl)c3)CC2)nc2c(C)cccn2c1=O	inconclusive [inhibitor, partial curve, poor fit]
CCOC(=O)c1ccc(N=C2SC(C(=O)NC)CC(=O)N2CCc2ccccc2)cc1 (stereo not drawn)	inconclusive [inhibitor, partial curve, poor fit]
CCn1cc(Br)c(C(=O)NN)n1	inactive
CC(C)(C)c1ccc(C(=O)NCCCN2CCN(CCCNC(=O)c3ccc(C(C)(C)C)cc3)CC2)cc1	inconclusive [inhibitor, partial curve, poor fit]
CCOc1ccc(NC(=S)Nc2ccc(OCC)cc2)cc1	inactive
CCOC(=O)N1CCN(C(=O)c2ccc(NS(C)(=O)=O)cc2)CC1	inactive
CC1=CCCC(C)(C)C1/C=C/C(C)=N/NC(=O)c1ccncc1 (stereo not drawn)	inconclusive [inhibitor, single point]
CCN(CC(=O)Nc1c(F)cccc1F)C(=O)c1cc(S(=O)(=O)N(C)C)ccc1N1CCCC1	inconclusive [inhibitor, partial curve, poor fit]

SMILES	Potency
CCOc1ccc2nc(NCCNC(=O)Nc3cccc(C)c3)c(C#N)cc2c1	inconclusive [inhibitor, single point]
COc1ccc(CN2CCCC(N3CCc4ccccc4C3)C2)c(O)c1 (stereo not drawn)	active: 1.65 µM
CCOC(=O)N1CCC2(CC1)C(C(=O)C13CC4CC(CC(C4)C1)C3)C2(C#N)C#N (stereo not drawn)	inconclusive [inhibitor, single point]
CC1c2cc3c(cc2CCN1C(=O)c1ccc(Cl)cc1)OCCCO3 (stereo not drawn)	inconclusive [inhibitor, single point]
N#C/C(=C\c1cccnc1)c1nc2ccccc2[nH]1	inconclusive [inhibitor, partial curve, poor fit]
CCc1ccccc1NC(=O)NNC(=O)CCc1ccc(OC)cc1	inconclusive [inhibitor, single point]
O=C(CCSc1nc(-c2ccco2)cc(C(F)(F)F)n1)NCc1ccccn1	inconclusive [inhibitor, single point]
O=C1C(SCCO)=C(SCCO)C(=O)c2ccccc21	inconclusive [inhibitor, single point]
CC[n+]1c(/C=C/C=C/N(C(C)=O)c2ccccc2)sc2ccccc21	active: 4.65 µM
COCc1ccc(C(=O)OC(C)C(=O)Nc2c(C)n(C)n(-c3ccccc3)c2=O)cc1 (stereo not drawn)	inactive
Cc1ccc(C(=O)Nc2nc3ccc(S(C)(=O)=O)cc3s2)o1	inactive
C=CCOC(=O)C1=C[C@H](c2cn(C(C)=O)c3ccccc23)C[C@H](OCCCCO)O1	inconclusive [inhibitor, single point]
O=C(CCC(=O)N(CC(=O)NC1CCCCC1)Cc1ccccc1)Nc1nccs1	inconclusive [inhibitor, partial curve, poor fit]
N=c1n(CC(=O)c2ccc(Br)cc2)c2ccccc2n1Cc1ccccc1	inconclusive [inhibitor, single point]
COc1ccc(-n2nc(C(=O)NCC(=O)NCCC3=CCCCC3)c3ccccc3c2=O)cc1	inconclusive [inhibitor, single point]
CC(C)(C)c1ccc(-c2nc(C#N)c(NCc3ccncc3)o2)cc1	inconclusive [inhibitor, single point]
CC(=O)N1c2ccc(S(=O)(=O)N3CCCC(C(=O)NCc4ccccc4Cl)C3)cc2CC1C (stereo not drawn)	inconclusive [inhibitor, partial curve]
COc1cc(OC)cc(-c2sc3ccc(OC)cc3c2C#CC(C)(C)O)c1	inconclusive [inhibitor, single point]
Cc1ccc(NC(=O)C2CSC3(C)CCC(=O)N23)cc1S(=O)(=O)N1CCCCCC1 (stereo not drawn)	inconclusive [inhibitor, single point]
O=C(Nc1nnc(-c2ccccc2)s1)c1ccccc1O	inactive
CCOc1cc(/C=C/C(=O)OCC(=O)NCCN2C(=O)CSC2=O)ccc1OCC(C)C	active: 14.7 µM

SMILES	Potency
CCOC(=O)c1c(NC(=O)CCS(=O)(=O)c2ccccc2)sc2c1CCN(C)C2	inconclusive [inhibitor, partial curve, poor fit]
Cc1ccc(NC(=O)CSc2nc(=O)n(CCN(C)C)c3c2CCCC3)cc1Cl	inconclusive [inhibitor, single point]
COc1cc(C(c2c(C)[nH][nH]c2=O)c2c(C)[nH][nH]c2=O)ccc1OCc1ccc([N+](=O)[O-])cc1	inconclusive [inhibitor, single point]
CCSc1ncc(Cl)c(C(=O)Nc2ccccc2OC)n1	inconclusive [inhibitor, full curve, poor fit]
CNC(=O)Oc1ccc2c(c1)[C@]1(C)CCN(C)[C@@H]1N2C	active: 3.38 µM and active: 10.4 µM and active: 8.28 µM
C=CCOc1ccc(CNCc2cccnc2)cc1	inactive
[2H]c1c([2H])c([2H])c(-c2nc(N3CCCCCC3)sc2C(=O)c2ccccc2)c([2H])c1[2H]	inconclusive [inhibitor, single point]
COc1cccc(-c2nn(-c3ccc(C)cc3)cc2C(=O)N2CCN(C3CCS(=O)(=O)C3)CC2)c1 (stereo not drawn)	inconclusive [inhibitor, single point]
O=C(CN(c1ccccc1F)S(=O)(=O)c1ccccc1)N1CCCCCC1	inconclusive [inhibitor, partial curve]
COc1ccc2[nH]c(=O)c(COC(=O)c3cccs3)cc2c1	inactive
Cn1cc(CCC(=O)N2CCCC(N3CCN(c4ccccc4F)CC3)C2)cn1 (stereo not drawn)	inactive
CC1CCN(C(=O)CN(C)S(=O)(=O)c2cccc3nsnc23)CC1	inconclusive [inhibitor, single point]
Cc1sc2ncn(CC(=O)N3CCC(C(N)=O)CC3)c(=O)c2c1S(=O)(=O)N1CC(C)CC(C)C1 (stereo not drawn)	inconclusive [inhibitor, single point]
CCOC(=O)Cn1nc(C)c(NC(=O)COc2ccccc2[N+](=O)[O-])c1C	inactive
O=C(COc1cccnc1[N+](=O)[O-])NCCc1ccc(Cl)cc1Cl	inconclusive [inhibitor, partial curve]
Cc1c(C(=O)NCc2ccc3c(c2)OCO3)oc2ccc(S(=O)(=O)N3CCCCC3)cc12	active: 10.4 µM
COc1ccc(OC)c(/C=C/C(=O)c2ccc3c(c2)OCO3)c1	inconclusive [inhibitor, single point]
C=CCc1ccccc1OCC(O)CN1CCN(Cc2ccc3c(c2)OCO3)CC1 (stereo not drawn)	inconclusive [inhibitor, single point]
CC(C)C(=O)N1CCC2(CC1)Oc1ccc(F)cc1C(=O)C21CC(c2ccc(Cl)cc2)=NO1 (stereo not drawn)	inconclusive [inhibitor, single point]
Cc1onc(-c2ccccc2)c1C(=O)OCC(=O)N(C)c1c(N)n(Cc2ccccc2)c(=O)[nH]c1=O	inconclusive [inhibitor, partial curve]
COc1ccc(OC)c2[nH]c(C(=O)N3CCC(C(=O)O)CC3)cc12	inactive
